Reference: PubChem BioAssay AID328 (DTP/NCI, 2004)
Inconclusive results and toxic doses are left out. The source holds more than one record for some entries. The list is limited to them. There may be further records. The values listed for one entry differ, and nothing given here explains why; dose, time, organism, isomer or construct need not be as stated for each record. Marks such as (2×) say how often a value occurs here.

Tested on: BDF1 mice, P388 leukemia ip, median survival T/C
Assay: NCI In Vivo Anticancer Drug Screen. Data for tumor model P388 Leukemia (intraperitoneal) in B6D2F1 (BDF1) mice
Settings: endpoint: median survival time, higher = longer survival
In short: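 Transplantable tumour in mice; compound vs vehicle dosing; survival scored; ratio of treated to control reported.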

In the case of C[n+]1cccc2c3ccccc3c(-c3ccccc3)cc21, the T/C (dose: 25.0 mg/kg/injection, schedule: Q01DX009 (ip), vehicle: water) is reported as 95 % of control and 158 % of control.
In the case of COc1cc(C(=O)c2cocc2C(=O)c2ccc3c(c2)OCO3)cc(OC)c1OC, the T/C (dose: 400.0 mg/kg/injection, schedule: Q01DX010 (ip), vehicle: saline) is reported as 113 % of control and 156 % of control.
For COC(=O)[C@@H](O)[C@](O)(CCC(C)C)C(=O)O[C@@H]1C(OC)=C[C@]23CCCN2CCc2cc4c(cc2[C@H]13)OCO4, the T/C (dose: 4.0 mg/kg/injection, schedule: Q01DX009 (sc), vehicle: saline) was 120 % of control, 150 % of control, 161 % of control.
In the case of CCOC(=O)Nc1nc(Cl)c(Cl)nc1Cl, the T/C (dose: 100.0 mg/kg/injection, schedule: Q04DX003 (ip), vehicle: water) is reported as 98 % of control and 200 % of control.
In the case of Cn1cnc([N+](=O)[O-])c1Sc1nc(N)nc2c1ncn2C1CC(O)C(CO)O1 (stereo unspecified), the T/C (dose: 100.0 mg/kg/injection, schedule: Q01DX009 (ip), vehicle: saline) is reported as 107 % of control (2×) and 156 % of control.
For COc1cccc2c1C(=O)c1c(O)c3c(c(O)c1C2=O)C[C@@](O)(C(=O)CO)C[C@@H]3OC1CC(N)C(O)C(C)O1 (stereo partly specified), the T/C (dose: 3.0 mg/kg/injection, schedule: Q04DX003 (ip), vehicle: saline) was 94 % of control and 360 % of control.
